According to PubChem BioAssay AID1240 (Sanford-Burnham Center for Chemical Genomics, 2008):
The whole screen tested about 50,000 compounds, of which about 800 (1.6%) showed an effect of 50% or more. Some of the results follow.

The compounds below were run against Bcl-2-like protein 10 (Homo sapiens) (UniProt Q9HD36) (assay: TR3 peptide-Bcl-B binding displacers, biochemical primary FP assay, phenotype converters (AID 1240;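 also: 0% = Bcl-B with tracer peptide and DMSO and 100% = tracer peptide lacking Bcl-B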)). Settings: GST-Bcl-B / FITC-TR3 peptide fluorescence polarization; stronger effect = higher value; compound at 3.75 mg/L.
UniProt Q9HD36, sequence (Q9HD36 whole entry, looked up): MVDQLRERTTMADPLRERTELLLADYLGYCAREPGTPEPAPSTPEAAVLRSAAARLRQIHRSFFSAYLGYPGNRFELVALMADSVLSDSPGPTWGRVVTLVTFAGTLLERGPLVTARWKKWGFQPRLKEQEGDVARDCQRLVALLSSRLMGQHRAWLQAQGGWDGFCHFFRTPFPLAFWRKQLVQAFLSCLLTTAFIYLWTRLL

Structure (SMILES)	displacement [%]
CCOC(=O)c1ccc(NC(=O)CN(c2ccc(OCC)cc2)S(=O)(=O)c2ccc(SC)cc2)cc1	6.6
COc1ccc(-c2cc(O)cc(O)c2)cc1	-2.3
COc1ccc(NC(=O)CN(c2ccc(C)c(Cl)c2)S(C)(=O)=O)cc1OC	18.5
O=S(=O)(c1ccccc1C(O)(c1ccccc1)c1ccccc1)c1ccccc1C(O)(c1ccccc1)c1ccccc1	8.9
COc1ccc(CNC(=O)CN(c2ccc(Br)cc2)S(=O)(=O)c2ccccc2)cc1	8.2
C=CC(=O)NC(NC(=O)C=C)c1ccc(F)cc1	15.5
CC(C)CCNC(=O)c1cccc(I)c1	1.1
Cc1ccc(N2CCSC2C(N)=O)cc1 (stereo not drawn)	3.7
Cc1ccc(-c2nc3ccc(C)cn3c2NC(=O)c2ccc(Cl)cc2)cc1	4.5
O=C1CSC(c2ccc([N+](=O)[O-])cc2)N1Cc1ccco1 (stereo not drawn)	-4.6
Cc1ccc(C(=O)NCCNc2ccc([N+](=O)[O-])cc2)cc1	15
CC(C)(C)C1=CC(N)=C(C(C)(C)C)C(=O)C1=O	-7.3
N/C(=N\OC(=O)c1ccc(I)cc1)c1cccnc1	-4.9
CC(=O)Nc1cc(-c2ccc(Cl)cc2)nn1-c1ccccc1	-11
COc1cc(/C=N/Nc2nonc2N)cc(OC)c1OC	3.2
CC(C)CCNC(=O)c1cccc([N+](=O)[O-])c1	10.4
COc1cc(C(=O)Nc2ccccc2C(N)=O)cc(OC)c1OC	4.7
CCOC(=O)c1c(NC(=O)c2cccs2)sc(C(=O)Nc2ccc3c(c2)OCO3)c1C	-2
COc1ccc(C2CC(=O)C3=C(C2)Nc2ccccc2NC3c2cccnc2)cc1OC (stereo not drawn)	-3.7
Cc1cc(NC(=O)c2ccc([N+](=O)[O-])cc2)ccc1-c1cc2ccccc2oc1=O	-5.3
CCN(CC)CCSc1nc(O)c(-c2ccccc2)c(=O)[nH]1	-18.6
Cc1cccc(C(=O)Nc2ccccc2CO)c1	6.4
O=C(Nc1c(C(=O)N2CCCCCC2)cnn1-c1ccccc1)c1ccc(Br)cc1	-9.1

Structure (SMILES)	displacement [%]
O=C(Nc1ncc(Cc2ccc(F)cc2)s1)c1ccc(OCc2ccccc2)cc1	-15.6
CCOc1ccc(NC(=O)CN(c2ccc(OC)c(Cl)c2)S(C)(=O)=O)cc1	3.9
COc1ccc(C(=O)Nc2ccc3c(c2)OCCO3)cc1OC	-0.4
CC(C)c1nnc(NC(=O)CSc2nncn2C)s1	14.8
O=C(NNC(=O)c1ccc(-c2ccccc2)cc1)Nc1ccccc1	6.6
CCc1ccc(NC(=O)C(=O)NCCN2CCN(C(=O)c3cccc(Br)c3)CC2)cc1	-15.5
O=C(N/N=C1\CCc2ccccc21)c1ccncc1	1.5
COc1ccc(C(NC(=O)c2ccccc2)NC(=O)c2ccccc2)cc1OC	14.7
CC(C)(C)c1cc(C(C)(C)C)cc(S(=O)(=O)CCc2ccncc2)c1	3
Cc1ccc(C(=O)CC(=O)c2ccc(C(C)(C)C)cc2)c(O)c1	-19.8
CCC(C)OC(=O)C1=C(C)NC(=O)NC1c1ccccc1F (stereo not drawn)	3.9
CCOC(=O)C(=CNc1ccccc1C(=O)O)C(=O)OCC	8.7
Cc1[nH]c2ccccc2c1/C=C(/C#N)C(=O)Nc1cccc(Br)c1	-17.5
O=C(O)c1ccc(/C=N/N2CCN(Cc3ccc(Cl)cc3)CC2)cc1	8.8
Cc1ccc(C(=O)Nc2cccnc2)cc1S(=O)(=O)N1CCOCC1	-23.4
COc1ccc(N2Cc3ccc(C(=O)N/N=C\c4ccc(Br)cc4)cc3C2)cc1	6.3
CCCCOc1ccc(C(=O)N2CCN(c3ccc(Cl)cc3)CC2)cc1	-4.5
COCCOC(=O)C1=C(C)NC2=C(C(=O)CC(C)(C)C2)C1c1cccc(F)c1 (stereo not drawn)	5.6
Cc1ccc(C2CC(C(F)(F)F)n3ncc(C(=O)Nc4ccc(C)c(C)c4)c3N2)cc1 (stereo not drawn)	16.2
O=c1cnnc(N/N=C/c2ccc([N+](=O)[O-])cc2)[nH]1	11.1
COc1ccc(C(=O)N2CCN(Cc3cccc(F)c3)CC2)cc1OC	-9.8
COC(=O)c1cc(Cl)c(NC(=O)c2c(-c3ccccc3Cl)noc2C)cc1OC	3.5
CCOC(=O)C1=C(O)/C(=C/c2ccccc2)SC1=Nc1cccc2ccccc12	14.5

Structure (SMILES)	displacement [%]
COc1cc(OC)cc(C(=O)N(C(=O)c2cc(OC)cc(OC)c2)c2ncccc2C)c1	-14.7
N#C/C(=C/c1cccc(C(F)(F)F)c1)C(=O)Nc1ccc(Cl)cc1	-0.9
COc1cc(/C=C2/C(=O)NC(=O)N(C)C2=O)cc(Cl)c1O	-2.5
O=C1C(=C/C(Br)=C/c2ccccc2)SC(=S)N1Cc1ccccc1	4
Cc1ccc(N2C(=O)CC(NCc3ccco3)C2=O)cc1 (stereo not drawn)	0.7
COc1cc(NC(=O)c2cc3n(n2)C(C(F)(F)F)CC(c2ccc(Br)cc2)N3)cc(OC)c1OC (stereo not drawn)	12.4
CCOC(=O)c1c(NC(=O)C2CC3CCC2C3)sc(C(C)=O)c1C (stereo not drawn)	-9.9
O=C(/C=C/c1ccc([N+](=O)[O-])o1)c1ccc(-c2ccccc2)cc1	-12.7
COc1ccc(C(=O)Nc2cccc(-c3nc4ccc(C)cc4o3)c2)cc1Br	-15.8
c1ccc2c3c(ccc2c1)OCOc1ccc2ccccc2c1C3	8.4
CC1(C)CC(=O)C2=C(C1)OC(N)=C(C#N)C2Cc1ccccc1 (stereo not drawn)	-4.2
Cc1c(Cl)cccc1NC(=O)C(=O)NCc1ccc2c(c1)OCO2	2.8
Cc1nn(C(=O)C2CC2)c(C)c1Sc1ccccc1	-9.8
Cc1ccc(C(=O)N2CCN(c3c(Cl)cccc3[N+](=O)[O-])CC2)o1	-2.7
Cc1c(NC(=O)c2cn3c4c(c(N5CCN(C)CC5)c(F)cc4c2=O)OCN3C)c(=O)n(-c2ccccc2)n1C	7.1
COc1ccc(C(=O)c2ccc(OC)cc2OC)c(OC)c1	5.6
CC1(C)CC(NCc2cc(Br)cc(Br)c2O)CC(C)(C)N1	13.8
O=C(CSCc1cccc(Br)c1)N=Nc1c(O)[nH]c2ccccc12	-2.4
COC(=O)C1=C(C)N(C)C(C)=C(C(=O)OC)C1c1cccs1	9.4
O=c1cc(C(F)(F)F)nc(Sc2c(-c3ccccc3)c3cc(Cl)ccc3[nH]c2=O)[nH]1	-3.4
CCOC(=O)c1sc(NC(=O)COc2ccc(C)cc2Br)nc1C	12.9
CCOc1ccc(/C=N/NC(=O)C(=O)NCc2cccnc2)cc1	5.4
